Data taken from PubChem BioAssay AID504333 (National Center for Advancing Translational Sciences (NCATS), 2011).
Values joined by “and” are separate entries in the source; they are usually repeats but may differ in a detail not shown here. Identical values can stand only once. Among all 360,000 compounds or so, about 16,000 (4.4%) were called active. Inconclusive results, whose numbers are uncertain, are shown with a selection of clear calls. Calls follow the shape of the dose curve; as a rule, active = well fitted inhibition curve with a large enough effect; inconclusive = small, poorly fitted or top-dose-only effect; inactive = no such curve, though single readings can be large or run the other way. Potencies beside an inconclusive call are fits to weak or partial responses and may not hold up.

Molecular target: Bromodomain adjacent to zinc finger domain protein 2B (Homo sapiens) (UniProt Q9UIF8)
Sequence of UniProt Q9UIF8 (Q9UIF8 whole entry, looked up, the tested form may be a part): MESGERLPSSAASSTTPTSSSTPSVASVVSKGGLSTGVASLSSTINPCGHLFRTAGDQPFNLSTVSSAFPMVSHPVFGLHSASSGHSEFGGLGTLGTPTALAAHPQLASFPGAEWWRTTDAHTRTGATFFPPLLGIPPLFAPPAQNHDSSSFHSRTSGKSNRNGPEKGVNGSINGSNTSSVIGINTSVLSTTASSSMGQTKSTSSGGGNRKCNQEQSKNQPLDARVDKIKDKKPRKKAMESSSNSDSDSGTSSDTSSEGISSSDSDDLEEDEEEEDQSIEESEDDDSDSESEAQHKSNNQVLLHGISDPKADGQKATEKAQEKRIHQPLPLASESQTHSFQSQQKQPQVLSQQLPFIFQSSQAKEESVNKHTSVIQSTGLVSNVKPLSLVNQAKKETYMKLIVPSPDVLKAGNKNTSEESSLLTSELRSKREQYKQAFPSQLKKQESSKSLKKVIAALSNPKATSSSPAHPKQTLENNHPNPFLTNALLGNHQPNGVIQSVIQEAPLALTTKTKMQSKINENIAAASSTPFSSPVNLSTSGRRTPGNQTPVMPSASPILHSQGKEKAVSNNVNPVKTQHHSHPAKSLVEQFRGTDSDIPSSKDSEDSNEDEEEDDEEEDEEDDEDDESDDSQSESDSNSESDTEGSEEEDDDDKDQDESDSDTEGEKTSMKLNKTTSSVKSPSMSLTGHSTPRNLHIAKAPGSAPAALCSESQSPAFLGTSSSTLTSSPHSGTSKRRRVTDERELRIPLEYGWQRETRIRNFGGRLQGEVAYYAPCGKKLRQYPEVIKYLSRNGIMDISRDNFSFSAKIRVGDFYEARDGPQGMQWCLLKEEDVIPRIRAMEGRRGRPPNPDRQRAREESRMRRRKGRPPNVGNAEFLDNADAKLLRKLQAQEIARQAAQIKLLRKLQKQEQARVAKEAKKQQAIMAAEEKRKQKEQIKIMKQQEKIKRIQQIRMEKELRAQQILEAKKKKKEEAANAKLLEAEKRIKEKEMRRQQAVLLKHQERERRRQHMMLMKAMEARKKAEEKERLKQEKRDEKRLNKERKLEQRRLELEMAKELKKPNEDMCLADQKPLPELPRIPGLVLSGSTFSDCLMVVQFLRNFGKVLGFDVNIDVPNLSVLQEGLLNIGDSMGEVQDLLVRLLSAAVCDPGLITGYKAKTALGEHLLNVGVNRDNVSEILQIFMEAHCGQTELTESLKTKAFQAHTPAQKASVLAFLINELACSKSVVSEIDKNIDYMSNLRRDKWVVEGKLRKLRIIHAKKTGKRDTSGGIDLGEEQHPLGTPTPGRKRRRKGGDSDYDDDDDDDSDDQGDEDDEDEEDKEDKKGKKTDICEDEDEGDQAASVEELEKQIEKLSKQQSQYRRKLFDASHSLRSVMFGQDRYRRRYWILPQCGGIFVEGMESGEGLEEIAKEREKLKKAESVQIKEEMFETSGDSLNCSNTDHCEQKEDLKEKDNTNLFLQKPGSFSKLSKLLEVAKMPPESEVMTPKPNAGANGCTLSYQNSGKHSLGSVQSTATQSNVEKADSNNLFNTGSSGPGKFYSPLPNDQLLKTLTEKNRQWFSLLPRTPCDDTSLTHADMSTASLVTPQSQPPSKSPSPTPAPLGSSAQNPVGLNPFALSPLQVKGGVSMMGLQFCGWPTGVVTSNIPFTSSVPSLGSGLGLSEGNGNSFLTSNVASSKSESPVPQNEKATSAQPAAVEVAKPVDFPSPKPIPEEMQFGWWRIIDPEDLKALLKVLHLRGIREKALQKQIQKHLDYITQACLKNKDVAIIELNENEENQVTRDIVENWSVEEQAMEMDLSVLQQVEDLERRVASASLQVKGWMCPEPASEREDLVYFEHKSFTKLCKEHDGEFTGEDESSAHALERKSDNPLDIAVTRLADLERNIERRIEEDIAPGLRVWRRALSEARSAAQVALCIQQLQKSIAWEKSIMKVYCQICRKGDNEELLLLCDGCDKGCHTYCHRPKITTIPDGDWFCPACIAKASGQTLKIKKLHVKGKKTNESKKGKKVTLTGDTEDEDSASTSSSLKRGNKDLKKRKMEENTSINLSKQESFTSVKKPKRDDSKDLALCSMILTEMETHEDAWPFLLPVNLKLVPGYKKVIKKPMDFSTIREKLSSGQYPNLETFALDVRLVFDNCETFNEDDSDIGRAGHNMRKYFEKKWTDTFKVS
Test: qHTS Assay for Inhibitors of BAZ2B; also: nearly all actives have a fitted effect of over 60% in size
Conditions: AlphaScreen BAZ2B-H3K14Ac peptide displacement; activity change, negative = inhibition: at 114 µM (top of the series)
How it was run: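 Protein-peptide AlphaScreen: BAZ2B 50 nM, b-H3K14Ac 50 nM, 1x PBS pH 7.4 + 0.01% Tween-20. Preincubation 30 min RT; cpd 30 min RT (top 110 uM); beads 20 min RT, light-protected.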
% is scaled to controls: 0 for no effect and ±100 for the full control effect; potency is read from the fitted curve at half-maximal effect; tags tell the direction and shape of the fitted curve.

Structure (SMILES) | Potency | activity change, negative = inhibition
O=[N+]([O-])c1cc([N+](=O)[O-])c2cccnc2c1Oc1ccccc1O | active: 28.2 µM | 
O=C(Nc1ccc(Cc2ccncc2)cc1)C1CCC(N2C(=O)C3C4C=CC(C5CC45)C3C2=O)CC1 (stereo not drawn) |  | inactive: -32.9%
Cc1ccc(OCC(=O)Nc2cccc(C(=O)OCc3cc(=O)n4nc(C)sc4n3)c2)cc1 |  | inactive: 0.876%
COc1ccc(Cc2nnc(N/N=C(\C)c3ccccc3)[nH]c2=O)cc1OC | active: 35.5 µM | 
c1csc(-c2nn3cnnc3c3ccccc23)c1 | inconclusive: 56.2 µM [inhibitor, partial curve] | 
O=C(CC1N=C2c3ccccc3N=C(SCc3cccc(F)c3)N2C1=O)NCc1ccc2c(c1)OCO2 (stereo not drawn) | inconclusive: 56.2 µM [inhibitor, partial curve] | 
O=C(O)c1ccc(NC(=O)c2cn(-c3ccccc3)nc2-c2ccc(Br)cc2)cc1 | inconclusive: 70.8 µM [inhibitor, single point] and inconclusive: 79.4 µM [inhibitor, partial curve] | 
CN(C)S(=O)(=O)c1cc(NC(=O)CSc2cccc[n+]2[O-])ccc1Cl |  | inactive: 3.37%
Cc1ccc(SCc2[nH]nc3c2C2(C(=O)Nc4ccc([N+](=O)[O-])cc42)C(C#N)=C(N)O3)cc1 (stereo not drawn) | inconclusive: 89.1 µM [inhibitor, single point] | 
Nc1ccc2nc(COc3ccccc3)[nH]c2c1 | inconclusive: 79.4 µM [inhibitor, partial curve] | 
CN1C(=O)CC(c2ccco2)Sc2ccccc21 (stereo not drawn) | inconclusive: 79.4 µM [inhibitor, single point] | 
Cc1ccc(CS(=O)(=O)c2ncc(Cl)c(C(=O)Nc3nnc(C)s3)n2)cc1 |  | inactive: -35.7%
COc1ccc(-c2nc(C(=O)NCCCN3CCOCC3)cc3c2[nH]c2ccccc23)cc1OC | inconclusive: 89.1 µM [inhibitor, single point] | 
O=C(Oc1ccc[nH]c1=O)c1cccc(Cl)c1 | inconclusive: 89.1 µM [inhibitor, single point] | 
CN(C)CCN=Cc1c(O)n(-c2ccc(S(=O)(=O)N3CCOCC3)cc2)c(=O)c2ccccc12 | inconclusive: 100 µM [inhibitor, single point] | 
COC(=O)CCCC(=O)N1CCCC(CCC(=O)NCc2ccc(F)c(F)c2)C1 (stereo not drawn) | inconclusive: 89.1 µM [inhibitor, single point] | 
CCc1ccc(-c2nc(CS(=O)CC(=O)NCc3ccccc3)c(C)o2)cc1 (stereo not drawn) |  | inactive: -15%
Cc1ccc(-c2[nH]c(-c3ccccc3)nc2SCC(=O)NCC2CCCO2)cc1 (stereo not drawn) | inconclusive: 79.4 µM [inhibitor, single point] | 
CCc1cccc(C)c1NC(=O)Cn1ccn(Cc2ccc(Cl)cc2)c(=O)c1=O |  | inactive: -1.23%
CCCN(CC(=O)Nc1ccccc1C)C(=O)Cc1c(C)nc2ccccc2c1C | inconclusive: 79.4 µM [inhibitor, single point] | 
Cc1cccc(CS(=O)(=O)Cc2ccc(C(=O)NCc3ccco3)o2)c1 | inconclusive: 89.1 µM [inhibitor, single point] | 
Cc1c2cnn(-c3ccccc3)c(=O)c2c(C)n1CCCC(=O)N1CCN(c2ncccn2)CC1 | inconclusive: 89.1 µM [inhibitor, single point] | 
CC12CCC(=O)N1C(C(=O)Nc1cccc(F)c1)CS2 (stereo not drawn) |  | inactive: -1.02%

Structure (SMILES) | Potency | activity change, negative = inhibition
O=c1c2ccccc2nc(SCc2cn3ccsc3n2)n1-c1ccccc1 | inconclusive: 89.1 µM [inhibitor, single point] | 
Nc1ccccc1Sc1ccccc1[N+](=O)[O-] | inconclusive: 50.1 µM [inhibitor, partial curve] | 
O=[N+]([O-])c1cccc(C(=S)N2CCN(c3ccc(F)cc3)CC2)c1 | inconclusive: 22.4 µM [inhibitor, full curve] | 
COc1ccc(CNC(=O)c2cc3c(=O)n4ccccc4nc3n(Cc3cccnc3)c2=N)cc1 | inconclusive: 89.1 µM [inhibitor, single point] | 
COc1cc(C2C3=C(CC(C)(C)CC3=O)OC3=C2C(=O)CC(C)(C)C3)cc([N+](=O)[O-])c1O | inconclusive: 89.1 µM [inhibitor, single point] | 
O=C(CNS(=O)(=O)c1cccc2nsnc12)NC1CCCCC1 |  | inactive: 14.8%
CC(=O)Nc1sc(NC(=O)c2ccccc2)nc1-c1cccs1 |  | inactive: 9.73%
O=c1c2cn[nH]c2[nH]c(=S)n1-c1ccccc1F | inconclusive: 89.1 µM [inhibitor, single point] | 
Cc1ccc(NC(=O)Cn2c(=O)n(Cc3ccc4c(c3)OCO4)c(=O)c3ccccc32)c(C)c1 |  | inactive: -0.334%
Cc1ccc(OCC(=O)N(C)CC(=O)Nc2ccc(Cl)c(C(F)(F)F)c2)c([N+](=O)[O-])n1 | inconclusive: 31.6 µM [inhibitor, single point] | 
C=CCOc1ccc(CNc2ccc(NC(=O)CC(C)C)cc2)cc1OC | active: 50.1 µM | 
NC(=O)CSc1nnc(Cc2csc(Nc3ccccc3)n2)n1Cc1ccccc1 |  | inactive: 4.12%
CC(C)c1ccc(NC2(C#N)C(=O)Nc3ccccc32)cc1 (stereo not drawn) | inconclusive: 79.4 µM [inhibitor, single point] | 
CN(CC(=O)Nc1ccccc1Br)C(=O)c1cc(Cl)nc2ccccc12 |  | inactive: -4.64%
Oc1oc(C=Nc2ccc(F)cc2F)c2ccccc12 | inconclusive: 100 µM [inhibitor, single point] | 
Cc1cc(C)cc(N(C(=O)Cn2nnc3ccccc32)C(C(=O)NCc2ccco2)c2ccncc2)c1 (stereo not drawn) |  | inactive: -2.6%
Cc1ccccc1NC(=O)c1cccc(Cn2cc(Br)c([N+](=O)[O-])n2)c1 |  | inactive: -2.91%
C#CCOCCOCCOCCNc1nc(N2CCN(C(=O)CCCCCCCCCCNC(=O)[C@H]([C@@H](C)CC)n3cc(CCCCCN)nn3)CC2)nc(N2CCN(C(=O)CCCCCCCCCCNC(=O)[C@@H]([C@H](C)O)n3cc(C)nn3)CC2)n1 | active: 56.2 µM | 
CCCOc1ccc(NC(=O)Cc2ccc(S(=O)(=O)N3CCOCC3)s2)cc1OCCC |  | inactive: -39%
Cn1nccc1/C=C(/C#N)S(=O)(=O)c1ccccc1 |  | inactive: 3.24%
CC(C)CN1CCC(C(=O)N2CCN(c3ccccc3F)CC2)CC1 | inconclusive: 89.1 µM [inhibitor, single point] | 
CCCn1nnnc1NCc1ccc(N(CC)CC)cc1 | inconclusive: 79.4 µM [inhibitor, single point] | 
O=C(Nc1cccc([N+](=O)[O-])c1)c1cc2ccccc2cc1O | active: 50.1 µM | 

Structure (SMILES) | Potency | activity change, negative = inhibition
C/C(=N\NC(=O)COc1cccc(Br)c1)c1ccc2c(c1)OCCO2 |  | inactive: -23.3%
COc1ccc2c(c1)c1c(c(=O)n(-c3ccc(OC)c(OC)c3)c(=O)n1Cc1ccc(F)cc1)n2C |  | inactive: -3.42%
Cc1ccccc1CS(=O)(=O)Cc1ccc(C(=O)NCCc2ccc(Cl)cc2)o1 |  | inactive: -0.559%
COc1ccccc1C(=O)NCC(=O)N=Nc1c(O)n(C(C)C)c2ccccc12 | inconclusive: 70.8 µM [inhibitor, single point] | 
COc1ccc(-n2c(O)c(Cc3ccccc3)c(=O)n3nc(-c4ccccc4)c(=O)cc23)cc1 |  | inactive: -2.27%
O=P(c1ccccc1)(c1ccccc1)c1nc(-c2ccccc2)oc1N1CCOCC1 | inconclusive: 79.4 µM [inhibitor, single point] | 
CCCNC(=O)c1ccccc1SCc1c(C)noc1C | active: 79.4 µM | 
Cc1cccc(C)c1NC(=S)N(CCCN1CCCCC1)Cc1ccco1 | inconclusive: 79.4 µM [inhibitor, single point] | 
Fc1ccccc1CN1CCC(Cc2ccccc2)CC1 | inconclusive: 79.4 µM [inhibitor, single point] | 
COc1cc(CNn2cn[nH]c2=S)cc(Br)c1OCc1ccccc1F | inconclusive: 79.4 µM [inhibitor, single point] | 
CCOC(=O)/C=C/COc1ccccc1[N+](=O)[O-] |  | inactive: -16.6%
CCN(CC)c1ccc(/C=N/n2c(-c3ccccc3Br)n[nH]c2=S)cc1 | inconclusive: 31.6 µM [inhibitor, full curve] | 
COc1ccc2[nH]c3c(c2c1)CCN1C(=O)N([C@@H](C)C(=O)NCCc2ccc(F)cc2)C(=O)[C@]31C | inconclusive: 39.8 µM [inhibitor, partial curve] | 
O=C(Nc1ccc(N2CCCCC2)cc1)c1ccc2ccccc2n1 | inconclusive: 14.1 µM [inhibitor, full curve] | 
CNC(=S)N(CCc1ccc(OC)c(OC)c1)C1CC(=O)N(c2ccccc2)C1=O (stereo not drawn) | inconclusive: 70.8 µM [inhibitor, partial curve, poor fit] | 
O=C(Nc1ccc([N+](=O)[O-])cc1)N1CCc2ccccc2C1 | inconclusive: 56.2 µM [inhibitor, partial curve] | 
COc1ccc(N2C(=O)CSC23C(=O)N2c4c(cccc43)C(C)=CC2(C)C)cc1 (stereo not drawn) | inconclusive: 56.2 µM [inhibitor, single point] | 
CCN(c1ccccc1C)S(=O)(=O)c1nnc(NC(=O)c2ccccc2C)s1 | inconclusive: 3.98 µM [inhibitor, full curve] | 
O=[N+]([O-])c1cccc(-c2c(-c3ccccc3)ncc3cc(F)ccc23)c1 | inconclusive: 10 µM [inhibitor, full curve] | 
O=C1C2C3C=CC(C3)C2C(=O)N1c1ccncc1 (stereo not drawn) |  | inactive: -16.8%
Cc1cccnc1NC(=O)CCc1nnc2ccc(NCc3ccco3)nn12 | inconclusive: 79.4 µM [inhibitor, partial curve] | 
Cc1cc(-c2nnc(-c3ccccc3)c(-c3ccccc3)n2)c(C)o1 | inconclusive: 44.7 µM [inhibitor, partial curve] | 
